The values that follow come from publication PMC6212790.

The other results are listed elsewhere or left out. At the low end of the ranking the order means little.

For the assay, the target named is T1, GST-Rok-C97-191 (UniProt O34857).
T1 sequence: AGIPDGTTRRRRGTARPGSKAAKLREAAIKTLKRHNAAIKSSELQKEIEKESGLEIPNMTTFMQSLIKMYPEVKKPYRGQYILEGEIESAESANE
In words: protein binding microarray.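 Also: rank score from −0.5 (least bound) to 0.5 (best bound).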 To be noted: Rok is a gene silencer of Bacillus subtilis; high values mean tight binding; most listed sequences are background and not binding sites; double strand, one strand shown.
As to AGGCAGCC, the binding signal is -0.306 E-score.
Take AAGAGAAG: the binding signal is 0.051 E-score.
Next, CATCGAGC: 0.0525 E-score; CCCCACCC: -0.296 E-score; ACCAACGG: -0.101 E-score.
To TAACGCTA belongs -0.0327 E-score; to ACCAATTC, 0.132 E-score.
To AACATCAC belongs 0.0103 E-score; to GAGAATTA, 0.226 E-score.
Take GAAATATC: the binding signal stood at 0.258 E-score.
Next, CCTAGAGG: -0.0881 E-score; CCAATGGA: 0.133 E-score.
To GCATTCGA belongs -0.00105 E-score; to AGTTGCCC, -0.0628 E-score; to ACACCTGG, -0.101 E-score.
AATTATTC: the binding signal turned out to be 0.163 E-score.
To TAGACCGA belongs 0.124 E-score; to CAGCCGGA, -0.17 E-score.
To CCATCCAG belongs -0.131 E-score.
Next, CAAGCATA: 0.0578 E-score.
In turn, TATGAAAA came in with a binding signal of -0.0337 E-score.
On to CGCACCCC, for which the binding signal is -0.388 E-score.
The sequence CACCATAG came in with a binding signal of 0.0443 E-score.
Next, GAAACACA: 0.0119 E-score.
Next, CATTAATG: 0.271 E-score; ACATCGCC: -0.163 E-score; GATACAGA: -0.145 E-score.
To AGGCGCCC belongs -0.279 E-score.
Sequence AACAGCGC returned a binding signal of -0.166 E-score.
CAAAGGCC showed a binding signal of -0.258 E-score.
To CAAGCCTA belongs 0.00707 E-score.
Next, AAGCAATA: 0.114 E-score; AAGTACGT: 0.209 E-score.
To ACGTCTAC belongs -0.02 E-score; to CTGCGGCC, -0.323 E-score; to AGGCAGTA, 0.186 E-score.
Turning to CCGACGGA, the binding signal is -0.091 E-score.
Next, GAATTTCA: 0.087 E-score; CCGATCAA: 0.0254 E-score.
Next, GACTAGAA: 0.206 E-score.
Next, GGATAGAA: 0.195 E-score; TTCAACAA: 0.0826 E-score; TACGTGGA: -0.126 E-score.
CGCCCCGA: the binding signal is -0.148 E-score.
To GGTTTGCA belongs 0.0352 E-score; to ACCTACCC, 0.0333 E-score.
Next, AAGACAAG: -0.0755 E-score; AGCAATTA: 0.303 E-score.
Next, ACAATTGA: 0.128 E-score; AGTCTCTG: -0.02 E-score.
TAGGCCCA registered a binding signal of -0.161 E-score.
Next, GGTAAGTA: 0.205 E-score.
To AAAGGTTC belongs -0.0274 E-score; to ACCTCGCT, -0.148 E-score.
Next, CAGTAGAC: -0.106 E-score.
Take GCACCTAA: the binding signal is -0.129 E-score.
To ACACAGTC belongs -0.101 E-score; to AACTTAGG, 0.11 E-score.
Sequence TATCCTAA registered a binding signal of 0.16 E-score.
To CCAAATCG belongs 0.0114 E-score; to CCCCTCCC, -0.298 E-score.
Sequence ATGGGTTA registered a binding signal of 0.141 E-score.
To CCGGACGC belongs -0.24 E-score; to CAGCGCCC, -0.333 E-score; to GGCGTTAA, -0.109 E-score.
To AGCCAAGA belongs -0.285 E-score; to AGCCCCCT, -0.435 E-score; to CCCAGTGC, -0.307 E-score.
To AGTGTTAC belongs 0.271 E-score.
The sequence GTCTCCCA came in with a binding signal of -0.173 E-score.
GAGATCAC had a binding signal of -0.00408 E-score.
To CGGCGTGC belongs -0.187 E-score; to CATAGCAG, -0.00645 E-score.
Next, CCGGCAGG: -0.169 E-score.
Next, CCCCGACA: -0.248 E-score; AAGCAGAC: -0.102 E-score; CGTTTATC: 0.231 E-score.
Take CTTTGGTA: the binding signal is -0.026 E-score.
To ATCGAAAT belongs 0.291 E-score; to AACTAAGT, 0.23 E-score.
Next, GTTCGAGA: 0.0819 E-score.
With AAACCACT, the binding signal was -0.0924 E-score.
Next, CGCTCAAA: -0.126 E-score; ACATGATG: 0.0243 E-score.
In turn, AATGAAGG yielded a binding signal of -0.169 E-score.
Next, CAGTTTAG: 0.0289 E-score; ATCAACTA: 0.213 E-score.
To GCACAACC belongs -0.119 E-score; to AACGAGCC, -0.166 E-score; to CCTAGAAC, 0.115 E-score.
Next, CGGGGGAA: -0.336 E-score; GAGGTAGC: -0.122 E-score.
Sequence GTTACGGA yielded a binding signal of -0.07 E-score.
Next, GCACGACA: -0.0862 E-score; ATAGTGTC: 0.172 E-score; AGAGTTGG: 0.0159 E-score.
To CTGCACCA belongs -0.0332 E-score; to CGAACGTC, -0.213 E-score.
Sequence ATTAATGG came in with a binding signal of 0.0311 E-score.
To ACCGGAGA belongs 0.0332 E-score; to CCGGTACA, 0.0693 E-score.
To GTAACCAC belongs 0.124 E-score.
Next, AGTGGCGA: -0.112 E-score.
CCTTAGTC showed a binding signal of -0.0143 E-score.
The sequence CGCCGGAC displayed a binding signal of -0.232 E-score.
Next, ACCGAACG: -0.0786 E-score.
Next, AGCTGAAT: -0.0968 E-score; ACCCCTTA: -0.121 E-score.
The sequence GTCATGGA came in with a binding signal of -0.0152 E-score.
To GAAAACTC belongs -0.0271 E-score.
To CGACGGGA belongs -0.178 E-score; to AATTCTGC, 0.122 E-score.
Next, CGAACGCG: 0.0126 E-score.
Consider TGCAGGAA, for which the binding signal was -0.0299 E-score.
To CTCATCTA belongs -0.0161 E-score; to AAGGTTGC, -0.232 E-score; to ACGTTCAC, 0.0772 E-score.
Turning to CCGTTCCC, the binding signal is -0.197 E-score.
To CAGAGACC belongs -0.168 E-score; to CACCCCAA, 0.0157 E-score; to GGTTCAAC, -0.0853 E-score.
The sequence TGGTACAA displayed a binding signal of 0.232 E-score.
To CTAGCTTA belongs 0.235 E-score; to AGCATCCA, -0.145 E-score.
Next, AGCGTACT: 0.0377 E-score.
Next, CTTAGACC: -0.194 E-score; AAAGAGCA: -0.205 E-score.
Sequence CTGTGTAA gave a binding signal of 0.0581 E-score.
Next, CACGCTCA: -0.0978 E-score; CCGGCTAA: -0.0153 E-score; TGGGCGAA: -0.167 E-score.
Next, ACAAATGG: 0.221 E-score; CCTCGCCC: -0.265 E-score; AATATCTG: 0.2 E-score.
Next, GCAGCTGA: -0.278 E-score; CGCCTCAA: -0.247 E-score.
AGATACGC: the binding signal came to 0.226 E-score.
Sequence AACTCTAG came in with a binding signal of 0.0856 E-score.
To AGGTGCAA belongs 0.148 E-score.
To CCAGAGTA belongs -0.111 E-score.
Next, ACTTGGAG: -0.118 E-score; ATGAGGTG: -0.0787 E-score.
The sequence CGATTACC gave a binding signal of -0.0915 E-score.
Next, ACACACAT: -0.0778 E-score; CACTGGAG: -0.288 E-score; ACGTTAGC: 0.00272 E-score.
Next, CTCAGGTC: -0.112 E-score.
To CTACCCTC belongs -0.104 E-score; to GGTGGCAC, -0.248 E-score; to GGCAAAAC, 0.125 E-score.
As to GGAAAGGA, the binding signal was -0.0275 E-score.
To AAGTTGCC belongs 0.0483 E-score; to GCTGTTGA, -0.124 E-score; to GCGACCGC, -0.241 E-score.
Next, AATAAACC: -0.0483 E-score.
To AAAGTTAT belongs 0.262 E-score; to CCCGTCAC, -0.282 E-score.
The sequence AGGCTGAC registered a binding signal of -0.0608 E-score.
In turn, CACCGGTA yielded a binding signal of 0.0827 E-score.
To ACGTCGTG belongs -0.0834 E-score; to GCCCTTAC, -0.0541 E-score; to AGATATCA, 0.0773 E-score.
To TACTATCA belongs 0.324 E-score; to CCCCGGCG, -0.351 E-score; to AGTCACAT, 0.09 E-score.
Next, GACCTTCC: -0.268 E-score.
The sequence AAGAACCC displayed a binding signal of -0.145 E-score.
In turn, ACTCGGGC yielded a binding signal of -0.286 E-score.
Next, CACTAGCG: -0.0571 E-score; AACTGGGC: -0.254 E-score; CATCCATG: 0.0926 E-score.
GAACAAAC: the binding signal is 0.00279 E-score.
